Assay results published in the supplement of paper PMC11417369.
This is one part of the list.

system: PfAP2-HC AP2 domain (GST-tagged); assay: gcPBM binding intensity (ln(normalized median fluorescence intensity)); higher = stronger DNA binding
Summary of the method: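 GST-tagged P. falciparum DNA-binding domains produced in E. coli were incubated for 1 h on an Agilent 4 × 180k array of primer-extended double-stranded 36-bp intergenic genomic probes with negative controls. Binding intensity is the highest Masliner-normalised natural-log median intensity across replicate spots of either probe orientation, with bound protein detected by Alexa488 anti-GST antibody at 488 nm.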

Row | Sequence | gcPBM binding intensity (ln)
1 | AGGTTAAAAATAAATACACACATTTTATGGGTGTAT [CACACA_site4702] | 9.71
2 | TGAAAATAATTATAGGTGCATAAACATACGGATCTT | 9.79
3 | TTTTTTTTGTATTTTTCACACACTCTCTATCTCTCT [CACACA_site8655] | 9.98
4 | TATAAAAATAATATTACACACATGTAAAATGCCCGT [CACACA_site7522] | 9.94
5 | ATATATTAATAATAAATTAAAAGGAGTAACATTTTC [CACACA_negctrl_site320] | 9.6
6 | TAATATATAAGAAACAAAAAAAAATAAAAATATATA [TGCATGCA_negctrl_site153] | 9.62
7 | TAAAATAATTCGTAACGTACATATGTAATATAATAT [XGTACX_site6126] | 9.87
8 | CGCATACACGGACACACACACACATATATATATATA [CACACA_site4520] | 10.9
9 | AAAAAAAAAAAACACACACACACACTAATATATAAA [CACACA_site8302] | 10.9
10 | GGTATAAAGAAATTTTGTACATATTTCTCCCTTTAA [XGTACX_site1874] | 9.41
11 | ATTTCTCAATCGTAATGTACAAAAAAAAGGAAAAAA [XGTACX_site1193] | 9.47
12 | TTATATAGATGGAATAGTACAGTATATATATATATA [XGTACX_site8755] | 9.68
13 | TAAATATATATCATCACACACACATACATAAATATA [CACACA_site183] | 10.7
14 | AGCTCTATATTTTACACATGCGATTTGGATATATAT [TGCATGCA_site105] | 9.84
15 | CCTTTATATTATAAAAGTACATAATATTTTATAAGT [XGTACX_site1629] | 9.4
16 | ATATTACAACGTAACGAATATTTCATAAATTCTTAA [CACACA_negctrl_site770] | 9.45
17 | TACTGTATTATAATTATGATTGACGAAATTAAAAAT [GTGCAC_negctrl_site358] | 9.36
18 | ATTAGAAAAAAGATAGCACACACGGCCCAATATATA [CACACA_site2417] | 10.1
19 | TGAAATTTATAATAGTGTACAAAGAAAAAAAAAAAA [XGTACX_site4965] | 9.64
20 | AAGGTTATATAAAAAAGTACGCATAAGATGTTGTTC [XGTACX_site807] | 9.77
21 | CAATATAAAATAAAATGTACTTGTAGTAAAGGGATA [XGTACX_site1452] | 9.93
22 | ATAAAGGTTTTCCAAGCATGCCACATAGTGACATAC [TGCATGCA_site193] | 9.48

Row | Sequence | gcPBM binding intensity (ln)
23 | GATGAGGACAAACACACACACATAAGTTGATACATA [CACACA_site3424] | 10.3
24 | AGATAGATACATACACGTACATATATATATACACAT [XGTACX_site4755] | 9.88
25 | TTTATGGATGTGTATGCATGCCTAAATAAATATATG [TGCATGCA_site916] | 9.63
26 | ACGACATATGGATGATGTACTATCTTTATTATACAT [XGTACX_site6857] | 9.77
27 | TCTCAAAAAAAAAAAAAAAAAAAAAAATTAAAAAAT [CACACA_negctrl_site1120] | 9.15
28 | TAAATAATGTAAAAAACATCATCAAAATGTTAATTA [CACACA_negctrl_site1768] | 9.51
29 | TAGAATAAACCAAGAAGTACTGTTTAATGAAAAGTA [XGTACX_site5712] | 9.71
30 | ATACCTAAAAAATATACACACATATTTATAAATATA [CACACA_site7260] | 9.81
31 | ATATATTATATGTACACACACATATAAGGGATTATA [CACACA_site5] | 10.1
32 | TATAAATATATATATACACACACATACACAAAAAAA [CACACA_site9191] | 10.5
33 | AAAAATATGAAGACACAATATAGAAATAAAAATATA [XGTACX_negctrl_site244] | 9.73
34 | TATTACTTGATATATACACACATATAACATAAATGC [CACACA_site7783] | 9.75
35 | TATTATAATATGTAGCGTACATTTTTTCTTTCTTTT [XGTACX_site7831] | 9.69
36 | AAAATAACATAAAAGAGTACTAAACCAAGATCAAAT [XGTACX_site7973] | 9.96
37 | TATATTTATATTCTTACATTTTTTATGTTTTTTTTT [CACACA_negctrl_site1017] | 9.74
38 | TAAACAGACATATAAACACACATATAAACCGACATA [CACACA_site2478] | 10.3
39 | GTCATATTATTCTTTTCACACACGCGTTAATAATAA [CACACA_site9302] | 10.6
40 | TATATATAATATTTTTCACACACCATTTCCTTAAAC [CACACA_site1341] | 9.96
41 | TTTTTTTTTTTTTTTTGTACATAATAAATGTTCTTA [XGTACX_site6754] | 9.04
42 | TGTATCTATAATAAAACACACATTTTTAATGTGCTC [CACACA_site6788] | 9.7
43 | ATAAATCAAATGCACACACACAAAAAAAAAAAAAAA [CACACA_site6221] | 10.4
44 | TACAAAAATATATAAACACACAAATATAATATATAT [CACACA_site2942] | 9.88
